The source of these data is PubChem BioAssay AID488969 (Vanderbilt High Throughput Screening Facility, 2010).

Whole data set: some 110,000 compounds, median “z-score” near -0.1, cut for the highest 2% near 2. This is one part of the list. The source made the active and inactive calls.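 The calls were made as follows: active = z-score in the third read window above 3 or below -3; inactive = the rest.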

The target in the assay is Metabotropic glutamate receptor 8 (Rattus norvegicus) (UniProt P70579). Nature of the assay: mGluR8 Gi/Go-coupled signaling modulation – cell-based, rat, thallium flux, HTS, primary screen (AID 488969). The following applies: HEK293 rat mGluR8, GIRK (G protein-gated inwardly rectifying potassium channel) thallium flux, FluoZin2; at 10 µM; stronger effect = higher value; submaximal glutamate (EC20) added with thallium.
UniProt P70579, sequence (P70579 whole entry, looked up): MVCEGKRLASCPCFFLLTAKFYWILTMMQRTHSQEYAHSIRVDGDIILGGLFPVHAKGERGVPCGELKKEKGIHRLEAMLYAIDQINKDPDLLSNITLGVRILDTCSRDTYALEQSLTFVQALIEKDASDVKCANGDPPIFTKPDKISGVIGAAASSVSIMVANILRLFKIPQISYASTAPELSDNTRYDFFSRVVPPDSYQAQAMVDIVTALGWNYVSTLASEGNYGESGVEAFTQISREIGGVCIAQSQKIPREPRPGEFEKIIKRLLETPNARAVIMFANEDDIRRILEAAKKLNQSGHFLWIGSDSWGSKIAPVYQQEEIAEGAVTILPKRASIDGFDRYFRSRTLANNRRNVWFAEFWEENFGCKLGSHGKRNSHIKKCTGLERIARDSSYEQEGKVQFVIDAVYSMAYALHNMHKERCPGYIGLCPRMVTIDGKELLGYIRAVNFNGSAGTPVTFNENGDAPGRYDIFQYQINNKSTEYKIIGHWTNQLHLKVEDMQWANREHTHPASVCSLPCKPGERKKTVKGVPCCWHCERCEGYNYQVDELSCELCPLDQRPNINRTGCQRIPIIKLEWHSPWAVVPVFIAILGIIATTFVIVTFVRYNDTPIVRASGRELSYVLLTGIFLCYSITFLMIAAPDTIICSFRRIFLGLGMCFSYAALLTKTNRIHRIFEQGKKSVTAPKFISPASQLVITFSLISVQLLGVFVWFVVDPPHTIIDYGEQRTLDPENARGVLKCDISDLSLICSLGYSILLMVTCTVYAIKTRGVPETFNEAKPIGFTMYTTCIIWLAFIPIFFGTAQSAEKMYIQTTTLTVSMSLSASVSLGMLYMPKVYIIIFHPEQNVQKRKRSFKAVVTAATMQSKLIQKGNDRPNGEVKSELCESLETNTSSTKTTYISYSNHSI
In turn, `COc1ccccc1OCCC(=O)OCC(=O)Nc1ccc(Br)cc1` returned a z-score of -0.0864.

The molecule `CC(=O)N1CCC(=NNc2ccc(S(=O)(=O)N3CCOCC3)cc2[N+](=O)[O-])CC1` had a z-score of 0.476.

The molecule `Cc1cc(C)nc(N2CCC(C(=O)Nc3cccc(C(F)(F)F)c3)CC2)n1` gave a z-score of 0.196.

`O=C1C2C3C=CC(C2C(=O)N1C1CCCCC1)C1C(=O)N(C2CCCCC2)C(=O)C31` (stereo not drawn) yielded a z-score of -0.0761.

`C=CCNCC(=O)NN=C(c1ccccc1)c1ccccc1` registered a z-score of -0.503.

Molecule `CCOC(=O)c1cnn(-c2ccccc2)c1-n1cccc1C(=O)C(=O)Nc1ccc(F)cc1` yielded a z-score of 0.0685.

`Cc1ccc(NC2=CC(=O)OC(C)C2)cc1` (stereo not drawn) gave a z-score of -0.119.

Turning to `CC(=O)c1c(C(C)=O)c(C)n(-c2nc(-c3ccc(Br)cc3)c(C)s2)c1C`, the z-score is -0.0458.

In turn, `Cc1sc(NC(=O)CN(Cc2ccc(F)cc2)C(=O)C(C)C)c(C(N)=O)c1C` returned a z-score of -0.0634.

For the molecule `O=C(NC1CCS(=O)(=O)C1)c1cnccn1` (stereo not drawn), the z-score amounted to 0.256.

In turn, `CCS(=O)(=O)N1Cc2ccccc2CC1C(=O)Nc1nnc(SCc2ccc(F)cc2)s1` (stereo not drawn) yielded a z-score of 0.399.

In turn, `Cc1cc(C)c(C(N)=O)c(SCC(=O)c2ccc(Cl)cc2)n1` displayed a z-score of 0.133.

The molecule `CC1CCN(C(=S)c2ccccc2O)CC1` registered a z-score of 0.47.

With `CCc1ccc(Nc2oc(C)cc(=O)c2C(C)=O)cc1`, the z-score turned out to be 0.915.

In the case of `CCn1c(COc2ccccc2C)nnc1SCC(=O)CC(=O)Nc1ccccc1OC`, the z-score was -0.167.

For `Cc1cc(C(F)(F)F)nn1CC(=O)NNC(=S)Nc1cccc(Cl)c1`, the z-score is -0.124.

In turn, `O=C(Cn1nnc2c(cnn2-c2ccc(F)cc2)c1=O)c1ccccc1F` yielded a z-score of 0.187.

Molecule `CCC(C)Cn1c(C)nc2ccccc21` (stereo not drawn) gave a z-score of -1.22.

In the case of `O=C(/C=C\NCC(=O)c1ccccc1)c1ccc(F)cc1`, the z-score stood at 0.1.

In the case of `COc1ccc(-c2csc(NC(=O)c3ccc(OCC(=O)N4CCOCC4)c(OC)c3)n2)cc1OC`, the z-score is -0.0158.

Molecule `COc1cc(/C=C(\NC(C)=O)C(=O)NC(C)(C)CC(C)(C)C)ccc1OC(C)=O` registered a z-score of -0.165.

In turn, `CCOC(=O)c1c(N)sc(C(=O)N2CCCC2)c1C` came in with a z-score of -0.0606.

Turning to `O=C(Nc1cccc(C(F)(F)F)c1)/C(=C/c1ccco1)NC(=O)c1cccs1`, the z-score was determined as 0.0438.

As to `O=C(COC(=O)CNC(=O)c1cccc([N+](=O)[O-])c1)Nc1ccccc1OC(F)F`, the z-score is -0.0652.

As to `NC(=O)C1(N2CCCCC2)CCN(Cc2ccccc2Cl)CC1`, the z-score was -1.25.

Consider `CCCC(c1nnnn1CCOC)N(Cc1cc2cc(C)c(C)cc2[nH]c1=O)CC1CCCO1` (stereo not drawn), for which the z-score is 0.0789.

As to `CCN(CC)CCn1c(NCc2cccc(OC)c2)nc2ccccc21`, the z-score worked out at 1.66.

`Cc1nc2ccc(NC(=O)c3cc(S(=O)(=O)N4CCOCC4)ccc3C)cc2s1` yielded a z-score of -0.113.

On to `O=C(CSc1nnc(COc2ccc(Cl)cc2)o1)N1c2ccccc2CCc2ccccc21`, for which the z-score is -0.061.

Consider `O=C(Cc1ccccc1)NNC(=O)Nc1cccc(Cl)c1`, for which the z-score was -0.0185.

`COc1ccc(/C(N)=N/OC(=O)Cc2cccs2)cc1` yielded a z-score of -0.337.

In the case of `COc1ccc(NC(=O)CN2CCN(S(=O)(=O)c3ccc(Cl)cc3)CC2)cc1`, the z-score was determined as 0.802.

In turn, `O=C(c1ccc(N2CCN(S(=O)(=O)c3ccccc3)CC2)c([N+](=O)[O-])c1)N1CCOCC1` registered a z-score of -0.0896.

With `CCOC(=O)c1ccc(NC(=O)NCc2ccn(CC)n2)cc1`, the z-score was -0.272.

The molecule `CC(NC(=O)OC(C)(C)C)C(=O)Oc1cc2oc(=O)cc(-c3ccccc3)c2cc1Cl` (stereo not drawn) yielded a z-score of -0.18.

`CN(C(=O)COC(=O)c1cccnc1Nc1cccc(C(F)(F)F)c1)C1CCS(=O)(=O)C1` (stereo not drawn): the z-score was -0.511.

Turning to `NC(=O)C1(N2CCCCC2)CCN(CC(=O)Nc2ccc(Oc3ccccc3)cc2)CC1`, the z-score is -0.0441.

Molecule `C/C(=N\NS(=O)(=O)c1ccc(C)cc1)c1ccc(Br)s1` displayed a z-score of -0.207.

The molecule `CCCN(Cc1cc2cc(C)ccc2[nH]c1=O)C(=O)c1cccc(OC)c1` had a z-score of 1.58.

`O=C(NCC12CC3CC(C1)CC(CNC(=O)N1CCCC1)(C3)C2)N1CCCC1` had a z-score of -0.0819.

On to `CCCC(=O)N=C1SC2CS(=O)(=O)CC2N1c1ccc(C(C)=O)cc1` (stereo not drawn), for which the z-score is 1.05.

`CCCC(=O)Nc1ccc(C(=O)N/N=C/c2ccc([N+](=O)[O-])o2)cc1` showed a z-score of -0.288.

The molecule `O=C(OCC#CCSc1nnc(-c2cccc3ccccc23)o1)c1ccco1` registered a z-score of -0.103.

`COc1cc(/C=N/O)ccc1OCc1ccc([N+](=O)[O-])cc1` had a z-score of -0.287.

As to `O=C(NC(=S)NCc1ccccc1)c1ccc2c(c1)OCO2`, the z-score was 1.71.

On to `C/C(=N\NC(=O)c1cc(Cl)ccc1O)c1ccc(Br)s1`, for which the z-score is active: 6.48.

In the case of `Cc1ccc(S(=O)(=O)N2CCC(C(=O)NNS(=O)(=O)c3ccc(Cl)cc3)CC2)cc1`, the z-score was -0.204.

`C=CCc1cccc2cc(C(=O)NC(C)(C)C)c(=O)oc12` had a z-score of -0.356.

Take `O=[N+]([O-])c1ccc(NC(=S)N2CCc3ccccc3C2)cc1`: the z-score worked out at 0.128.

`Cc1ccc(-c2nnc(Nc3ccccc3)c3ccccc23)cc1S(=O)(=O)NCC1CCCO1` (stereo not drawn) had a z-score of -0.462.

As for `CC(=O)Nc1ccc(-n2nnnc2SCC(=O)N2CCN(C(=O)c3ccco3)CC2)cc1`, the z-score is -0.165.

`Cc1cc(C)cc(NC(=O)CSc2nc3[nH]ncc3c(=O)[nH]2)c1` registered a z-score of -0.54.

With `COc1cc(/C=C/C(=O)OCC(=O)NC(=O)NC(C)C)ccc1OCC#N`, the z-score was -0.426.

On to `CCOc1ccc2nc(N3CCOCC3)nc(C)c2c1`, for which the z-score is -0.106.

In turn, `COc1ccc(NCC(=O)Nc2ccc(Cl)cc2C)c(OC)c1` registered a z-score of -0.192.

`Cc1ccccc1NC(=O)Cn1c(=O)n(Cc2ccccc2)c(=O)c2c(C)c(C)sc21`: the z-score came out at 0.105.

Turning to `O=C(CSc1nc2ccccc2o1)NCc1ccc2c(c1)OCO2`, the z-score was found to be 0.00646.

`Cc1ccc(C(=O)NCCSc2ccccc2)cc1S(=O)(=O)Nc1ccccc1`: the z-score was -0.224.

Consider `C/C(=N\O)C1/C(=N/O)CC2C1C2(C)C` (stereo not drawn), for which the z-score is -0.147.

Consider `Cc1ccc(S(=O)(=O)CC(c2ccccc2)N2CCOCC2)cc1` (stereo not drawn), for which the z-score was -0.145.

The molecule `CCOc1ccc(NC(=O)/C(=C\c2ccc(OC(C)=O)c(OC)c2)NC(C)=O)cc1` displayed a z-score of -0.207.

For `O=C(Nc1cccnc1)C1CCCN(S(=O)(=O)c2cccc3nsnc23)C1` (stereo not drawn), the z-score was -0.00732.

In the case of `Nc1nc2ccc(S(=O)(=O)N3CCCCC3)cc2s1`, the z-score was -0.0709.

In the case of `CCOC(=O)C1CCN(C(=O)N(C)C)CC1`, the z-score is -2.73.

In turn, `CCc1nnc(NC(=O)CSc2nc3c(cc2C#N)CCC3)s1` registered a z-score of 0.013.

`O=C(/C(=C/c1ccc(Cl)cc1)c1nc2ccccc2[nH]1)c1cccs1` displayed a z-score of -0.626.

Turning to `COc1ccc(-n2ncc3c(NCCCn4ccnc4)ncnc32)cc1`, the z-score is -0.185.

`NC(=O)COC(=O)c1oc2ccccc2c1CSc1ccc(Cl)cc1`: the z-score is -0.126.
